From the RNAGym collection of RNA variant scans (doi:10.7554/elife.90254) come the findings set out here.

The labels stand for the following.
B1: OR4K15 (parent)
chain: GUUAACGGUCAUAGGCCAUGGAAACUAGGAGCACCAUUUCGCUGCCAGUGAAGAAAUGAACAAAGAAAAUCUGGGCCAGGCAGGCAUCAAAAGAAAUAGUCUUGCGCUCAACCAGAAAGUCUGUAAUCAUUUUAAGGGUA

The source gives no read counts; variants with many changes may rest on few reads.

Variants of B1 are the subject of the series. Nature of the series: self-cleavage, relative activity (ratio to wild type); higher = more cleavage; in vitro, sequencing; the parent is a self-cleaving ribozyme.
In the case of U12A A27C U43C A62G, the self-cleavage stood at 2.18.
As for U12C A118G U127C A140G, the figure is 0.13; as for U12C U108A A116G, 0.07; as for A13G A60C A98U, 1.61.
The same measure for A13G A67G G80C A117U: 0.21.
As for A11G U37C A92G U120C U130C, the figure is 0.3; as for U12A A18U U19C A23C A92G U130C, 0.37.
For the variant U12A A18U G21A A78U A117G, the self-cleavage stood at 0.61.
As for A13G A24G A33U U103C, the figure is 1.06; as for U12A A91U G104A G115U, 0.01.
Turning to A11U U87C A110U, the self-cleavage was found to be 0.89.
Regarding U12C A24G U39C A60U A67G, the self-cleavage came out at 0.57.
A11U A66G A86G U87C U130C: the self-cleavage was 0.45.
The same measure for A11G U120C U132C: 0.6.
In the case of U12C A59G U72C U127C, the self-cleavage was found to be 0.13.
The same measure for U12C A24C A47G A55G G115A G119A: 0.07; for U12A A56G A89G A126C: 0.85; for U12C A30G A51G U57C A62U A78G A94C: 0.29.
Take A11U U38C U103C U127C: the self-cleavage was determined as 0.22.
Consider A13G A23G U72A A91G U103C G137U, for which the self-cleavage came out at 0.19.
On to A13G A36U U132C, for which the self-cleavage came out at 1.83.
The same measure for U12A A33G A94G: 1.55; for U12A A114G A118G: 0.27.
As for A11U U108C A116U, the figure is 0.01; as for U12C A59G A66G A94U, 0.69; as for A13G A82U A114U, 0.08.
The same measure for A11U A54G A82G U130C: 0.41; for U12C U43C A126U: 0.54.
In the case of A11U U37G U43A A51G U102C, the self-cleavage came to 1.78.
As for U12G U19C U87C A89G, the figure is 0.44.
As for U12A A55G A92G, the figure is 1.1; as for U12C G99U A118G A140G, 0.13.
As for A13G A92G U97A A118G, the figure is 0.57.
Turning to A11G U43A A55G U122C C128A, the self-cleavage was 1.64.
As for A11U A18G A24G U100C A111G, the figure is 0.18; as for U12C A60G A69G A140G, 1.31; as for A13G A47G A54G A55G U72C A94G U122C, 0.2.
Regarding A11U A64G U133C, the self-cleavage came to 0.67.
As for U12C A22G A33C U108A, the figure is 0.12; as for U12A A90G U103C A140G, 0.22; as for U12A A22G A63G A64G U100C U102C, 1.38.
The same measure for A11U G15A U38C A67G A95G: 0.22.
As for A11U A56G A110C A126G, the figure is 0.1.
For the variant A11G U72C U100A, the self-cleavage came to 0.11.
As for U12C A56G A59G U97C, the figure is 1.2; as for U12C A13G A64G A117G, 0.89; as for U12A A13G A18C U49C A55G A110G A111G, 0.05.
U12A A30G A90U G106U A114G U122A: the self-cleavage turned out to be 0.02.
As for U12C U37C U38C A60C U108C A110G U130C, the figure is 0.01.
The same measure for A11U U49C A111U A118U: 0.05; for U12C A59U A68G U122A U132C: 1.21; for A11G U39C A64G A82G U100C: 0.77.
Regarding A13G G44A U120C, the self-cleavage came to 0.96.
The same measure for A13G A56C A59G A129G: 0.42.
The same measure for A11U U57C U87C A111G: 0.03.
The same measure for U12A A91G A116G G137C: 0.27; for A13G A23G A86G U108A U139A: 0.14.
As for U12C A67U A94G, the self-cleavage was 2.44.
Turning to A13G A59U A89G, the self-cleavage was determined as 0.73.
As for A13G A23G A33U U57C U100C A114G, the figure is 1.48; as for U12C A95G U100C, 1.28; as for A13C A23U U102C, 1.82.
The same measure for U12C A18G C113G U127C: 0.01; for U12C U37C U108C: 0.03; for U12C U39C U102A: 1.25.
As for U12C G48A A52G A55G A116G A126G, the figure is 0.2.
Consider U12C U37C A51G A125G, for which the self-cleavage stood at 0.27.
On to U12C A24G A51G, for which the self-cleavage stood at 1.23.
As for U12A A59U A63G U132C, the figure is 1.24.
As for A11U U39C U49C A114G, the figure is 0.47; as for A13G C40U A55G A64G U102A A116G, 0.79; as for U12C A18G A36G C40A A68G U97C, 0.86.
Take U12A U57C A114C: the self-cleavage came out at 0.
As for A13G U26A A51U A69G, the figure is 1.36; as for A11U A23G U43C, 0.75; as for A13G A24G C40U U103C, 0.46.
As for U12C U132C A140G, the figure is 1.32; as for A11U A95G A118G, 0.72.
As for A11U A23G A62U, the figure is 0.74; as for A11U G31A A60G A89U A125G, 0.61.
As for A13G A66G A126G, the self-cleavage came out at 0.73.
As for A11U A92G U108A, the figure is 0.03; as for U12A U43A A67U U72C A82G U100A A111G A114C A135G, 0.
As for A11U C40U A68G A78G, the figure is 0.31; as for A11U A56G A126G, 0.87.
The same measure for A11G U49G A69G A110U: 1.13.
As to A13C U19A G20A A91G, the self-cleavage was determined as 1.21.
As for A11G U102C A118G A126G, the figure is 0.79; as for U12A A91G A111U A140U, 0.14.
The same measure for A11U A24U G44A U70C A78G G138A: 0.26; for A13G A52U A62G: 1.16; for U12C A27G A82U A89G U139A: 0.2.
As for U12A A51G A95G, the figure is 1.45.
As to A11U A22G A54U U139A, the self-cleavage is 1.45.
The same measure for U12C C81U A98U U122A U130C: 0.17; for U12C U26A A56G: 0.74.
The same measure for A11G U70C U127G: 0.91.
The same measure for A13G A55G A59G: 1.49; for U12A A68C C107G A129U U130C: 0.03; for A11U U72C U124A: 0.08.
A13G A94U A118G: the self-cleavage came to 0.68.
As for A11U A51G U120C, the figure is 0.91.
As for A13G A64U A86G, the figure is 0.88; as for A11U A36G A51G A94G U102C, 0.72.
Take U12C A55U A118G: the self-cleavage turned out to be 0.69.
For the variant A11G U38C A89G, the self-cleavage came to 1.07.
As for A11U A22G A67G U70C A96G, the figure is 0.83; as for A13G C32U A64G A118G, 0.81.
As for A13G A66G U108G, the figure is 0.09; as for A11U A36G U38A A66G C85G, 0.44; as for U12A U43A A66G A126C A129G, 0.6.
The same measure for U12A A22U U43C A51G U100A: 1.02; for A11G U70C C88U: 0.24.
Regarding U12A A24G U103C, the self-cleavage is 0.87.
Take A13G A33G U133C: the self-cleavage was 0.99.
On to U12A U43A A92U, for which the self-cleavage stood at 0.21.
As for U12A U38C A64U A86U A135G, the self-cleavage is 1.71.
As for U12C A22G A55U G58U C88A, the figure is 1.14; as for U12A A54G A63G U130C U132C, 1.02; as for A11U C46U U57A U102C, 0.79.
As for A11U A23G A33G A68G U132C, the figure is 1.14.
As for U12C A56G U108C, the figure is 0.04; as for U12A A13G A36G G41A U49C A95G, 1.37.
On to A11U C35A A62G A98G A110U, for which the self-cleavage stood at 0.35.
As for U12C A64G A91G, the figure is 1.08; as for U12A U57A A89C, 1.02; as for U12C A98G A114G A140G, 0.07.
Turning to U12C A13G A18G A64G U72C, the self-cleavage stood at 0.56.
Consider A13G A30G A52U, for which the self-cleavage came to 0.55.
As for A13C A62G A91G A94C, the figure is 0.45.
As for U12A U19C A23G U38C U49A A51U A59U U127C U131C, the self-cleavage turned out to be 0.9.
The same measure for A11U A22G U132C: 1.33; for A11G U43C G48A A98G U102C A114U: 0.14; for A11U A95G U127C G136U: 0.92.
As for A11G U39C A52G A55G G73U A89G A91G, the figure is 0.09; as for A13G A52U A66G A89C, 0.44; as for U12C U72A U139C, 0.56.
As for A11G U38C A94G A116U, the figure is 0.22.
Take A11G U72C A90U U122A: the self-cleavage came out at 0.28.
In the case of U12C G75C A126G, the self-cleavage turned out to be 0.12.
The same measure for A11G U49A A52G U72A: 0.15.
The same measure for A11U A24G U49C A95C: 1.05.
The same measure for U12A A52C A54G: 1.43.
As for A13G A129C U131C, the self-cleavage worked out at 0.69.
As for A11G U39C U102C A110G, the figure is 0.12; as for U12A A54G U57A A111G, 0.09.
For A13G A54G U87C U100A, the self-cleavage turned out to be 0.9.
As for U12C A18G A66G A68G A92G, the figure is 1.17.
The same measure for A13G A60G A68G: 0.9; for U12A A36C A51G A63G U120C: 0.9.
As for U12C U127C U132C, the figure is 0.8; as for U12C A52G U97C, 1.81.
On to A13G A60G C107A U127C, for which the self-cleavage was 0.07.
As to A11U A27G A36G U122C, the self-cleavage is 0.75.
Consider A11G U38C A86C, for which the self-cleavage was found to be 0.57.
As for A11G U70C A111U, the figure is 0.09; as for A11U U49C U97A, 1.95.
The same measure for A11G U37C U102C U120C: 1.59.
As for U12A A23G C45G, the figure is 0.99.
A11G U38C U87C: the self-cleavage was 0.34.
As for A13G A94G A118G, the figure is 0.63.
The same measure for U12C C42G A59U A117G A140U: 1.37.
As for A11U G48A A78G U120C, the figure is 0.08; as for A13G A22G A82G, 0.13.
U12C A63G U87C A89G U97C: the self-cleavage came out at 1.65.
As for U12C A55G A90G, the figure is 1.22.
As for A13G A23U A54G, the figure is 0.39.
